The full ranking holds about 33,000 sequences; the median of “E-score (-0.5 to 0.5)” is about -0.013, and the highest 2% start at about 0.3. This is one part of the list.
What follows are sequences tested against T1, Msn1 (UniProt P22148) (assay: PBM E-score (8-mer binding enrichment) (E-score (-0.5 to 0.5)); higher = stronger / more preferred TF binding; most listed sequences are background and not binding sites). Settings: protein concentration: 200 nM; construct: GST-full length.
T1 sequence: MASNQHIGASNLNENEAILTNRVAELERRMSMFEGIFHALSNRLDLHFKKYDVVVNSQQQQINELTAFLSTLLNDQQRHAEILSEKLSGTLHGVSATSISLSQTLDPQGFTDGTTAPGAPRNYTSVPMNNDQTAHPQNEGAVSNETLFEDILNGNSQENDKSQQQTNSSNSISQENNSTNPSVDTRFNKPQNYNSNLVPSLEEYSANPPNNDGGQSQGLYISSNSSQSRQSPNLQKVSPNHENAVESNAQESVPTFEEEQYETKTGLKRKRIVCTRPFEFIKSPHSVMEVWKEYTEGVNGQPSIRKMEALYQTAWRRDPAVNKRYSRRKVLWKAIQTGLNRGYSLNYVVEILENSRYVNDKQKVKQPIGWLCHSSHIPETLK
Method in brief: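 E-scores (a modified Wilcoxon-Mann-Whitney statistic) were assigned by the Universal PBM Analysis Suite to every ungapped eight-base word pooled with its reverse complement. The input came from universal all-10-mer Agilent arrays made double-stranded by primer extension and probed with GST-tagged yeast transcription factors at about 100-200 nM. Fluorescent anti-GST detected bound protein, and masliner normalised the scans.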

Sequence	PBM E-score
CGCGCTTC	-0.0305
CGGCTCCC	-0.17
ATAAGCTG	0.0198
CACCTGAC	-0.0449
ATTCGGGG	-0.0264
CAAGTGGC	0.0127
TCTCAAAA	0.17
GCCAAGAA	-0.0682
GGTTAGGA	-0.267
CGGAGCGA	0.204
AACCATAT	0.148
ATCGCGCC	0.0253
GGAGTAAA	0.142
AACAGCTT	0.029
GAACCTCA	0.0628
ACTGGTGG	-0.142
GGGTCGGA	-0.0868
CTATTACA	0.0558
AAGGGTCC	-0.253
GTGGACAA	0.468
CGAGTGTC	0.232
AACGTCCC	0.0192

Sequence	PBM E-score
TAAGCCCA	-0.231
GAAGTACA	0.102
AAAGGAGC	-0.0516
CACGCTAC	-0.109
CGATCGCC	0.158
CCAGCTAC	-0.236
ACTAGCCA	-0.0391
AAGACTCC	-0.149
AGCGCCTA	0.122
CAGCTTTA	0.00511
CGGGTGTC	-0.027
GCCGGATA	0.089
GGGTTTCA	-0.0088
GGTCCCGA	-0.0692
CGCGCTAC	0.0224
AAACTTGG	0.0927
ATAGCCTC	-0.0566
TGTCAACA	0.131
ACTCGGTG	-0.0874
CAGACAAC	0.212
ATGTAACC	-0.0865
CCTACTGA	-0.0568

Sequence	PBM E-score
ACACGGAG	0.00035
CTCTTTCC	-0.158
ATAGGGAC	0.274
AAAGCCTG	-0.146
GCGTTGCA	0.116
GCCTCGAA	0.0707
TAGGCCTA	-0.0564
ACTGGAGG	-0.213
AGATAGTG	-0.0237
GCTACCAA	-0.0555
GCCGCGCC	-0.021
ACTCTGGA	0.0585
CTGAATTC	0.0565
CCTAGAAG	-0.262
ATGTTCCA	0.0473
AGGCTTCA	-0.253
GCCAAGCC	-0.132
CCACCACG	-0.138
AACCTCAC	-0.16
CCAGTCTC	-0.195
AATGTGAA	0.0873
ACGGATTA	-0.0419

Sequence	PBM E-score
ACTGCGCT	-0.176
TCGTACCA	0.176
ATATCATC	0.123
CTAAACCA	-0.00916
GGCGATAC	-0.0673
TCGCAAAA	-0.0395
TCGCTCAA	0.0545
TCGCGACA	0.157
AAGCATGA	-0.0381
CTTACCGA	-0.0903
CCAGGGGA	-0.262
CTGGGATA	-0.0501
AATGATGA	0.149
TCGTTTAA	0.255
AGAATTTA	0.0908
AGCCACCA	-0.162
ATATATAG	0.219
TCTAATAA	-0.0049
ACGTATGC	-0.0244
ATTGAGGA	0.0503

Source: the supplement of paper PMC3334620
